Source: PubChem BioAssay AID2060601 (Molecular Pharmacology Branch, DTP, NCI, 2025)
Certain results were filed several times, with different values. Only these are listed. The source may hold further records. Values given together are repeated measurements in other runs, samples, wells, individuals or studies.

Test system: 874868-142-R-J2-PDC complex spheroids, growth % test/control
Test: Anticancer human tumor 874868-142-R-J2-PDC patient-derived head and neck squamous carcinoma cell line growth inhibition [CLK]
Excerpt: A high-throughput screen of multi-cell type tumor spheroids was designed to identify active combinations of […] and targeted small molecules. Complex spheroids include a stromal component modeled by human endothelial cells (HUVEC) and fibroblasts modeled by human mesenchymal stem cells (MSCs). The concentration ranges selected for each drug and investigational agent were based upon clinically achievable concentrations if the clinical Cmax of the agent was known.
Compounds. The drugs and investigational agents: cirtuvivint (SM08502; NSC835563), CC-671 (NSC850746), vemurafenib (NSC761431), tapotoclax (NSC804041), sotorasib (NSC818433), adagrasib (NSC831453), MRTX-1133 (NSC836407), BAY2416964 (NSC825713), copanlisib (NSC816437), inavolisib (NSC800729), abemaciclib (NSC768073), osimertinib (NSC779217), entinostat (NSC756642), eltanexor (KPT-8602, NSC794443), venetoclax (NSC766270), ceralasertib (NSC777638), bortezomib (NSC756655), olaparib (NSC753686), talazoparib (NSC767125), alisertib (NSC759677), peposertib (NSC802822), gemcitabine (NSC613327), 5-fluorouracil (NSC19893), SN-38 (NSC673596), oxaliplatin (NSC266046), paclitaxel (NSC125973), and doxorubicin (NSC123127), were obtained from the National Cancer Institute (NCI) Developmental Therapeutics Program Chemical Repository. […] If the clinical Cmax for an agent had not been determined, the highest concentration tested was 10 microM. […]
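Further: spheroids exposed to the compounds for 7 days.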
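Wherever viability, T/C is given: 100% = DMSO vehicle control viability.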

**Q.** For `CNC(=O)c1ccc(Nc2nc(OC3CCCC3)c3c(-c4ccc5nc(C)oc5c4)c[nH]c3n2)c(OC)c1`, which viability, T/C (compound alone 0.0316 µM, stronger effect = lower value) is on record?
**A.** The viability, T/C was 97.4, 95.9, 86.5, 82.7, 117, 101, 107, 105, 90.5, 95.6, 95%.

**Q.** And the IC50 (compound alone, run of 09/19/2023)?
**A.** Its IC50 is 658 nM, 751 nM, 913 nM, 720 nM, 791 nM, 974 nM, 767 nM, 1.68 µM, 980 nM, 569 nM, 391 nM.
